# Results published in publication PMC4336329 (PLoS ONE, 2015).
# The whole screen tested about 310,000 compounds, of which about 2,200 (0.71%) showed an effect of 50% or more. The effect is printed as a negative number. Some of the results follow.
# Target: human ether-à-go-go-related gene (hERG) potassium channel (human, UniProt Q12809)
# Assay: primary screen, population patch clamp on CHO cells stably expressing hERG
# Sequence of human ether-à-go-go-related gene (hERG) potassium channel (Q12809 whole entry, looked up): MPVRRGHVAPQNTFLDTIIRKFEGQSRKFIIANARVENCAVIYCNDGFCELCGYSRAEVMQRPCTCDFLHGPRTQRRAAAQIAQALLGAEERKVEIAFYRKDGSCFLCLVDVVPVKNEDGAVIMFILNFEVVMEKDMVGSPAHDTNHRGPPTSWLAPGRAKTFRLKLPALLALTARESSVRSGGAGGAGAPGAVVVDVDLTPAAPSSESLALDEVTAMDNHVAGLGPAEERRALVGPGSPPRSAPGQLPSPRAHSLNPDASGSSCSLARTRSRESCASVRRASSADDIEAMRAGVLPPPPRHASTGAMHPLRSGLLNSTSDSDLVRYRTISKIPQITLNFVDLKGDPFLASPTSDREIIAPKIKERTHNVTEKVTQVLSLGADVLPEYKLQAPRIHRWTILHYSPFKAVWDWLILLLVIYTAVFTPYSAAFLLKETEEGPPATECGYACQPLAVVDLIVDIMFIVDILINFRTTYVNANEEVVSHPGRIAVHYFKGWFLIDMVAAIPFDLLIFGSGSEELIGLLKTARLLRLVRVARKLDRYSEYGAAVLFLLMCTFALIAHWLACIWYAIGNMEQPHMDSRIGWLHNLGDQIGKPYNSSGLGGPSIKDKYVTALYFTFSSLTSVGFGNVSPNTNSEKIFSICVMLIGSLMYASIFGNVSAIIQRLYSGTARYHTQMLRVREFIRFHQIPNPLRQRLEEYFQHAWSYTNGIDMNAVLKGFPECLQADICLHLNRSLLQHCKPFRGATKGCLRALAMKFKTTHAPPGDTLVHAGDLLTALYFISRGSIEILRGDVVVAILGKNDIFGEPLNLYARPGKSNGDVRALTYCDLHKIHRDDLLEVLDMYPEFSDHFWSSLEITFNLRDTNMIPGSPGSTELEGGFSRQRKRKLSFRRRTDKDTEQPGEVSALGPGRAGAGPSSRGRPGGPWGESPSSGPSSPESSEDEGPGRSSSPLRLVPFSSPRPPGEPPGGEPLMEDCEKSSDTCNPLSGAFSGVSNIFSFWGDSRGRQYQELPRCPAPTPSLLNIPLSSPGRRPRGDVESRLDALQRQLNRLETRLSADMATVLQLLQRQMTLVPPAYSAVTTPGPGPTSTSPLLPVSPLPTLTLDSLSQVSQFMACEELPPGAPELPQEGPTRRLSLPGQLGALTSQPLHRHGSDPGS
row,Compound,"hERG current change (%, negative = inhibition) at 1uM [%]"
1,CC1CCN(C(=O)CCc2ccc(S(=O)(=O)NC(C)(C)C)cc2)CC1,-0.657
2,Cc1cccc(-n2ncc3c2CCCC3NC(=O)C2(C(N)=O)CC2)c1C (stereo not drawn),10.7
3,CN1C(=O)C(CCC(=O)O)NC1=S (stereo not drawn),10.1
4,O=C1C(Cl)=C(N2CCCC2)C(=O)N1c1ccccc1F,14.7
5,CCOC(=O)c1cn(CC(=O)Nc2ccc(C(C)C)cc2)nn1,8.55
6,CCOc1ccccc1-n1c(SCC(=O)NC2CCCC2)nnc1-c1ccoc1C,-8.33
7,Cn1cc(CN2CCCC(C(=O)Nc3cccc(-n4cccn4)c3)C2)cn1 (stereo not drawn),8.76
8,CCOc1ccc(CCNC(=O)COC(=O)c2ccc(Br)o2)cc1OCC,12.8
9,COc1ccc2[nH]c3c(c2c1)CCC/C3=N\N,15.1
10,Cc1ccc(CCS(=O)(=O)c2ccc(C(C)(C)C)cc2)cn1,19.6
11,COc1ccc(-c2cc(=O)oc3cc(OCc4nn[nH]n4)ccc23)cc1,17
12,COc1ccc(N2CC(C(=O)Nc3cccc(C)n3)CC2=O)cc1 (stereo not drawn),6.67
13,CC(C)(C)OC(=O)NNc1c2ccccc2nc2ccccc12,16.9
14,COc1cc(/C=C(\C#N)C(=O)NC(C)C)ccc1OCc1ccc(C(=O)O)cc1,9.84
15,O=C(c1ccc2c(c1)OCO2)N1CCCc2ccccc21,17.5
16,O=C(Cn1cnc2cc(Cl)ccc2c1=O)Nc1ccc2c(c1)OCO2,10.3
17,N#CC1=C(N)Oc2n[nH]c(-c3ccccc3)c2C1c1cccc(OC(=O)N2CCOCC2)c1 (stereo not drawn),8.55
18,Cn1c(=O)n(C)c2cc(/C=N/NC(=O)c3ccncc3)ccc21,13.2
19,CCOCc1nnc(NC(=O)CS(=O)(=O)c2ccc(C)cc2)s1,12.2
20,CC(=O)N(C)CC#CCN1CCC(O)CC1,12.3
21,CCOC(=O)CCc1c(C)c2c(C)nn(-c3ccccc3)c2[nH]c1=O,0.469
22,CN1CCN(C(=O)c2cc(COc3ccc(F)cc3Cl)on2)CC1c1ccccc1 (stereo not drawn),7.28

row,Compound,"hERG current change (%, negative = inhibition) at 1uM [%]"
1,COc1ccc(C(C(=O)NCC2CCCO2)N(C(=O)Cn2nnc3ccccc32)c2ccc(NC(C)=O)cc2)cc1 (stereo not drawn),12
2,CCOc1ccc(C(=O)NCC2OCCc3ccccc32)cc1 (stereo not drawn),3.68
3,O=C(Nc1ccccc1)c1cnc2ccccc2n1,4.89
4,O=c1c2cc3c(=O)n(-c4ccccc4O)c(=O)c3cc2c(=O)n1-c1ccccc1O,6.38
5,Cc1c(C)c2c(OCC(=O)N[C@@H](Cc3ccccc3)C(=O)O)cc3c(c2oc1=O)CCC(C)(C)O3,10.5
6,CCOCCCNC(=O)c1cc2c(=O)n3cccc(C)c3nc2n1C,17.3
7,COc1ccccc1NC(=O)CCSc1ccc(C)cc1,11.6
8,C=CCNC(=O)NC(=O)c1csc([N+](=O)[O-])c1,8.85
9,N#CCSc1ncnc2sc3c(c12)CCC3,6.9
10,O=C(NCCc1nc2ccccc2[nH]1)c1cc([N+](=O)[O-])cc([N+](=O)[O-])c1,0.372
11,O=C(CSC1=NCCS1)N1CCN(c2ccccc2)CC1,-2.13
12,O=C(Cn1ncc2c([nH]c3ccccc32)c1=O)N1CCN(c2ccccn2)CC1,17.9
13,COc1ccccc1-c1nnc2sc(-c3cnccn3)nn12,8.35
14,CC(=O)c1cccc(NC(=O)c2cc(C)no2)c1,13.1
15,CCCOc1cccc(-c2nn(-c3ccccc3)cc2/C=C(\C#N)C(=O)NCCCn2ccnc2)c1,13.6
16,C=CCn1c(CSCc2ccccc2)nnc1SCC(=O)NCc1ccccc1,-9.04
17,CCCN(CC(=O)Nc1ccc(C(C)=O)cc1)CC(=O)Nc1ccccc1C,20
18,Cc1ccc(NCc2nnc3n2CCCCC3)cc1,13.6
19,FC(F)(F)c1cc(-c2ccccc2)nc(NC2CCCC2)n1,17.3
20,COc1ccc(N2CCN(C(=O)CSc3nc4ccccc4c(=O)[nH]3)CC2)cc1,5.08
21,C=CCN(C)CC/C=C1\c2ccccc2CSc2ccccc21.Cl,-2.38
22,O=C1C[C@H]2[C@H](CO)[C@@H](OC(=O)c3ccc(-c4ccccc4)cc3)C[C@H]2O1,9.31

row,Compound,"hERG current change (%, negative = inhibition) at 1uM [%]"
1,O=C(N/N=C/c1ccco1)c1cccc(S(=O)(=O)Nc2ccccc2Cl)c1,5.29
2,O=C(N/N=C/c1ccc(OC(F)F)cc1)c1cccc(S(=O)(=O)N2CCOCC2)c1,1.24
3,CCOC(=O)N1CCC(N2C(=O)c3cc(C(=O)NC4CCCCC4)ccc3C2O)CC1 (stereo not drawn),-2.75
4,COc1cnn(-c2ccc([N+](=O)[O-])cc2)c(=O)c1Cl,10.3
5,O=C(O)c1cccc(Cn2c(Cl)c(/C=N/NC(=O)c3ccc(O)cc3)sc2=O)c1,2.77
6,Cc1cccc(C)c1NC(=O)CN(C)C(=O)CC1Sc2ccccc2NC1=O (stereo not drawn),11.6
7,COc1ccc(CCNC2CC(=O)N(CCc3ccccc3)C2=O)cc1OC (stereo not drawn),8.77
8,COc1cc(C(C)=O)ccc1OCC(O)CNCC(O)c1ccccc1.O=C(O)C(=O)O (stereo not drawn),8.95
9,CC1CCCCN1Cc1c(O)ccc2c(=O)c(-c3nc4ccccc4s3)coc12 (stereo not drawn),1.24
10,NC(=O)c1nc(-c2ccccc2)c(-c2ccccc2)[nH]c1=O,9.1
11,O=C(c1ccccc1)c1cnc(-c2ccc(Cl)cc2)s1,12.1
12,COc1cnc(-c2ccccn2)nc1Sc1ccccc1Cl,5.73
13,Cc1ccc(-n2ncc3c(NCc4ccc5c(c4)OCO5)ncnc32)c(C)c1,6.98
14,O=C(CCN1C(=O)S/C(=C/c2ccccc2)C1=O)Nc1ccc(O)c(C(=O)O)c1,16.7
15,O=C1CCCc2[nH]c(-c3ccccc3)nc21,7.63
16,O=c1c(/C=N/O)coc2ccc3ccccc3c12,-2.82
17,CCOc1ccc(S(=O)(=O)Nc2cccc(C(=O)NCC(c3ccc(OC)cc3)N3CCOCC3)c2)cc1 (stereo not drawn),12.6
18,Br.CN(/N=C/c1ccncc1)C1=NCCN1,13.1
19,CCCOC(=O)C1=C(C)NC2=C(C(=O)CC(C)(C)C2)C1c1cccnc1 (stereo not drawn),12.6
20,Cc1nn(C)c(C)c1NC(=O)CN1CCC(O)(c2ccc3c(c2)OCO3)CC1,6.06
21,COC(c1ccccc1)c1nnc(CCC(=O)NC2CCCCC2)o1 (stereo not drawn),3.87
22,O=C(c1ccc(Cn2c(=O)[nH]c3ccccc3c2=O)cc1)N1CCN(c2ccc(F)cc2)CC1,9.82

row,Compound,"hERG current change (%, negative = inhibition) at 1uM [%]"
1,Cc1nc(CS(=O)(=O)c2ccccn2)sc1C(=O)NNC(=O)c1c(F)cccc1Cl,15.4
2,COc1ccc(CCN(Cc2ccccn2)C(=S)Nc2ccccc2C)cc1OC,6.09
3,CC/C(=N\NC(=O)Nc1ccccc1)c1c(O)n(Cc2ccccc2)c(=O)[nH]c1=O,9.36
4,Cc1cc(C)n(-c2nc3ccccc3c(=O)n2OCCOc2ccccc2)n1,8.15
5,CC1CCCC(NS(=O)(=O)c2cc(Br)cnc2N)C1C (stereo not drawn),10.6
6,NC1=NC(c2cn(-c3ccccc3)nc2-c2cccs2)n2c(nc3ccccc32)N1 (stereo not drawn),4.06
7,C[C@H](NC(=O)NC1CCCc2ccccc21)C(=O)O (stereo partly drawn),17.2
8,O/N=C/c1cn(-c2ccccc2)nc1-c1ccc2c(c1)OCCO2,6.86
9,COc1ccc(CCNC(=O)[C@H](C)N2C(=O)N3CCc4c([nH]c5ccccc45)[C@@]3(C)C2=O)cc1,7.34
10,CCOc1ccc(NS(=O)(=O)c2cc(Cl)ccc2OC)cc1,5.37
11,CC1(C)NC(=O)N(CC(=O)N2CCN(c3ccc([N+](=O)[O-])cc3)CC2)C1=O,-29.1
12,Cc1cccc(C)c1OCCCCN1CCNCC1.O=C(O)C(=O)O,14.3
13,C=CCOc1ccc(/C(O)=C2\C(=O)C(=O)N(CCCOC)C2c2ccc(O)c(OC)c2)cc1 (stereo not drawn),14.7
14,C=CCn1c(Cc2ccc(OC)cc2)nnc1SCC(=O)NCCc1ccccc1,-11.7
15,N/C(=N\NC(=O)c1ccc(F)cc1)c1cc2ccccc2oc1=O,2.42
16,O=[N+]([O-])c1ccc(N(CCO)Cc2ccccc2)c([N+](=O)[O-])c1,15.4
17,O=C(CSc1nnc(-c2ccccn2)n1Cc1ccco1)c1ccccc1,-20.7
18,CS(=O)(=O)c1nsc2nc(=O)c(/C=C3\C=Nc4ccccc43)c(N)n12,9.52
19,CCn1c(CNC(=O)c2ccccc2F)cc2cc(C)ccc21,14.8
20,CN(C)C(=O)c1ccc2c(c1)n(C)c(=O)n2C,6.44
21,CCOC(=O)C1C2C=CC3(CN(Cc4ccco4)C(=O)C13)O2 (stereo not drawn),19.4
